Experimental findings from PMC4560833 are described below.

These are yes or no findings as the source states them, for the method shown. In cells and extracts the contact can be indirect. Some results given as binding are weak or reduced against the parent protein; the word gives no strength. For some assays here: Tags and fused reporters may be left off the sequences shown.

The target of assay [1] is T1, Insig-1 cloned into p3Xflag-CMV-10 (UniProt O15503).
T1 sequence: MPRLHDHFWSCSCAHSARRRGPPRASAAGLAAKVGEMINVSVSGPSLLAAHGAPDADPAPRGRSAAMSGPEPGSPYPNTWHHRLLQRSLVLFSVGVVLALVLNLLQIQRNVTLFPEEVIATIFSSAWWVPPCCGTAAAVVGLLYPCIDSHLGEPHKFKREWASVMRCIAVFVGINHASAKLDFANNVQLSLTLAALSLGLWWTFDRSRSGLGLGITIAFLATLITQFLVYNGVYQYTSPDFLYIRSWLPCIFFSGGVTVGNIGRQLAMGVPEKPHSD
Description: co-IP; HEK293T cells transiently transfected; lysis buffer 20 mM Tris-HCl pH 7.5, 137 mM NaCl, 5 mM EDTA, 1% NP-40, 10% glycerol; antibody overnight at 4 °C, protein A/G agarose, immunoblot; in Fig. 4e cells in normal medium, LD medium or LD medium with 25-HC. (Immunoblotting shows a protein as a band on a membrane.)

Assay [2] has as its target T2, Myc-tagged Scap (SREBP cleavage-activating protein) (UniProt Q12770).
T2 sequence: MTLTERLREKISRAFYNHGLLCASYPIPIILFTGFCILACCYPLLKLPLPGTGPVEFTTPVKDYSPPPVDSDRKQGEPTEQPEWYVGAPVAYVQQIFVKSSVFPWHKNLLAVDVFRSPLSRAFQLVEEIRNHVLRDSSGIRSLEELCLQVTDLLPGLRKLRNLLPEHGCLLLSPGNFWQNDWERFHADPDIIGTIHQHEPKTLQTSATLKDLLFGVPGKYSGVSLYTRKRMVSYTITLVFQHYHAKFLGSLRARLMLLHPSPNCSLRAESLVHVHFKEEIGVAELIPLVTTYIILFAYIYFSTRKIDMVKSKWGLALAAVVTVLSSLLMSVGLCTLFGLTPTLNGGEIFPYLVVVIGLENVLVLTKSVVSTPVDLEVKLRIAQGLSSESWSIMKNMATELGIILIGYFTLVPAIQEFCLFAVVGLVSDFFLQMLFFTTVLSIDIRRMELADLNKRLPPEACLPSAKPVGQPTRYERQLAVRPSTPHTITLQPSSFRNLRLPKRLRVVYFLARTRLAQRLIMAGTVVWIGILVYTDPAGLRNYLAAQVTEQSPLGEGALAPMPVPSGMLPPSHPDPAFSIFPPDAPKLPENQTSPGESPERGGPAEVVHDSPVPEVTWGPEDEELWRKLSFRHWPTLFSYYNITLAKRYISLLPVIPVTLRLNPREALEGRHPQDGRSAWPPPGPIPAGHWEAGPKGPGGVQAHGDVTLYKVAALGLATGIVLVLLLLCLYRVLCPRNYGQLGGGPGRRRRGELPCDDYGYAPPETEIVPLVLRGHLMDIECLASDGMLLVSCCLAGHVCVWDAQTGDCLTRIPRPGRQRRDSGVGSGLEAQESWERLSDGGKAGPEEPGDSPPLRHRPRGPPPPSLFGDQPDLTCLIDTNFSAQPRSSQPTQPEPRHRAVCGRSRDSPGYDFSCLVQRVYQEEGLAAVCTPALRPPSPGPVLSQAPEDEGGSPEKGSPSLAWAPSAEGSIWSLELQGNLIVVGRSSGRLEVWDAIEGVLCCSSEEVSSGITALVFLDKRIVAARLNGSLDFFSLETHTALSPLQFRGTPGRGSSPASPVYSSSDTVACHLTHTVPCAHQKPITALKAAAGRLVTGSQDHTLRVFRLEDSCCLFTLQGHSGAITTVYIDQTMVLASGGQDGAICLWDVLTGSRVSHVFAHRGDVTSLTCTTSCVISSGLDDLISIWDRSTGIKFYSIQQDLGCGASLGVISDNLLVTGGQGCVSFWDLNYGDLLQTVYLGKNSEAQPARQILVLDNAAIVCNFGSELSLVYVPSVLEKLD
The assay is described as above.

The target of a further assay is T3, Flag-tagged SREBP-2 (UniProt Q12772).
T3 sequence: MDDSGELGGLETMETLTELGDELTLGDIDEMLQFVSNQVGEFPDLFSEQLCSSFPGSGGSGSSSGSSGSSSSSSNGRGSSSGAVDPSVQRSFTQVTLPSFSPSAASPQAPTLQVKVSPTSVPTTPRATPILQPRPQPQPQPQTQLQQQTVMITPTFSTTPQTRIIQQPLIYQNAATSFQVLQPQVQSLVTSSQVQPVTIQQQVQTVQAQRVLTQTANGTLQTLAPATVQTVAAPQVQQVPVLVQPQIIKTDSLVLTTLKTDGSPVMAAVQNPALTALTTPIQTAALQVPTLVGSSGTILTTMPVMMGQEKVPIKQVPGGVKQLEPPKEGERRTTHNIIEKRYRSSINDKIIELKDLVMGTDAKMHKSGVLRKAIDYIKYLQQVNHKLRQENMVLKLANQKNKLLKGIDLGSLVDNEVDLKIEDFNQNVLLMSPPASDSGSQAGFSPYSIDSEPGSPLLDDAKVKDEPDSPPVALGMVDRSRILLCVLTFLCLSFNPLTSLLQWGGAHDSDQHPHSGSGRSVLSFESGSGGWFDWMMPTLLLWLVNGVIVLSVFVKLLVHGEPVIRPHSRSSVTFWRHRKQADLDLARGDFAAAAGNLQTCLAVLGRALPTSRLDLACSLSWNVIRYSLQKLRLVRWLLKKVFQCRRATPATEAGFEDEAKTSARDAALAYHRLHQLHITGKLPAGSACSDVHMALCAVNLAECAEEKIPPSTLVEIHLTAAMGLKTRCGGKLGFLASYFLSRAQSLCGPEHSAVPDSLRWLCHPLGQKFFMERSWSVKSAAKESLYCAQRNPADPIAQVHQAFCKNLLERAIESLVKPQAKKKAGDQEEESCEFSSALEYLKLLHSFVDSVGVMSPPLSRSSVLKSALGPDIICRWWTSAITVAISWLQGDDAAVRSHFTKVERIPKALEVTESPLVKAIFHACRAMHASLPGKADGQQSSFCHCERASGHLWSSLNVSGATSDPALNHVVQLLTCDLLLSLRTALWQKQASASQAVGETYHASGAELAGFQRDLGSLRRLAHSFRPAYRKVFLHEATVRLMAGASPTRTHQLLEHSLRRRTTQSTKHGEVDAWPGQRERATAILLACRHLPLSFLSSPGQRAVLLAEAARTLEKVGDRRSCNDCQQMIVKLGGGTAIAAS
The description is as above.

Assay [3] addresses T4, endogenous Scap (human (endogenous in HEK293T)) (UniProt Q12770).
T4 sequence: T2 sequence
Description: co-IP; endogenous proteins in HEK293T cell lysate; IP and IB with the antibodies as indicated.

In assay [4] the target is T5, endogenous SREBP-2 (human (endogenous in HEK293T)) (UniProt Q12772).
T5 sequence: T3 sequence
Described as above.

Assay [5] has as its target T2, Myc-tagged Scap (SREBP cleavage-activating protein). Description: co-IP; two-step co-immunoprecipitation; 293T cells transfected with Myc–Scap, Flag-SREBP-2 and GFP–PAQR3; first IP anti-Myc, elution with Myc peptide in 250 mM NaCl; second IP anti-GFP or control IgG.
The target in assay [6] is T6, PAQR3 (progestin and adipoQ receptors 3), overexpressed (UniProt Q6TCH7).
T6 sequence: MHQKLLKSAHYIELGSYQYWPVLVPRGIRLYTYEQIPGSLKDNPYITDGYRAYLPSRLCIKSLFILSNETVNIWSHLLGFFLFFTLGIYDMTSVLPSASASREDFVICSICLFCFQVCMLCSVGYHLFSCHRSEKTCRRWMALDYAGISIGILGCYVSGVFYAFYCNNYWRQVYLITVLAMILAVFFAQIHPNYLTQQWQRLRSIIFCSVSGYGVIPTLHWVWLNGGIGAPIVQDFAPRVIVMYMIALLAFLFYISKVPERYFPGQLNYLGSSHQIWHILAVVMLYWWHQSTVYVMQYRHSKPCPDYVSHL
Description: co-IP; HEK293T cells transiently transfected; lysis buffer 20 mM Tris-HCl pH 7.5, 137 mM NaCl, 5 mM EDTA, 1% NP-40, 10% glycerol; antibody overnight at 4 °C, protein A/G agarose, immunoblot; in Fig. 4e cells in normal medium, LD medium or LD medium with 25-HC.

B1: PAQR3 (progestin and adipoQ receptors 3), overexpressed (protein, UniProt Q6TCH7 1-311)
chain: T6 sequence
For B1, the values for the binding result (in assay [1]; in assay [2]; in the assay with Flag-tagged SREBP-2) were “no binding”, “binds” and “binds”, respectively.

B2: endogenous PAQR3 (protein, UniProt Q6TCH7 1-311)
chain: T6 sequence
B2: the binding entry in assay [3] and in assay [4] was “binds” throughout.

B3: GFP-fused PAQR3 (protein, UniProt Q6TCH7 1-311)
chain: T6 sequence
Turning to B3, the binding entry in assay [5] is “binds”.

B4: Myc-tagged Scap (SREBP cleavage-activating protein) (protein, UniProt Q12770 1-1279)
chain: T2 sequence
Turning to B4, the binding entry in assay [6] and in assay [1] was “binds” in each case.
